{"source": "ChEMBL document CHEMBL1156829", "note": "The full ranking holds about 5,400 compounds; the median of “IFI” is about 2, and the highest 2% start at about 22. Some of the results follow.", "data": [{"assay": "NOVARTIS: Inhibition Frequency Index (IFI) - the number of HTS assays where a compound showed > 50% inhibition/induction, expressed as a percentage of the number of assays in which the compound was tested.", "format": "functional", "units": {"IFI": "%"}, "values": [{"smiles": "COc1ccc(-c2c(C(F)(F)F)nn(C)c2NC(=O)Nc2ccc(F)cc2F)cc1", "IFI": 2.46}, {"smiles": "CCCN(CCC)C(=O)Cn1ccc(=N)c2ccccc21", "IFI": 0}, {"smiles": "CCCCCCC(=O)Oc1ccccc1-c1nc2ccccn2c1NC(C)(C)CC(C)(C)C", "IFI": 4.59}, {"smiles": "c1ccc(-c2ccnc3c2ccc2c(-c4ccccc4)ccnc23)cc1", "IFI": 13.7}, {"smiles": "CCc1ccc2[nH]c(=O)c(CN(Cc3ccc(OC)cc3)C(=S)NCCCN(CC)CC)cc2c1", "IFI": 8.27}, {"smiles": "O=C1N=C(N2CCOCC2)S/C1=C/c1cccc2ccccc12", "IFI": 0}, {"smiles": "O=C(Nc1ccccc1Cl)C1CCCN1C(=O)OCc1ccccc1", "note": "(stereo not drawn)", "IFI": 3.45}, {"smiles": "CCCOC(=O)C1=C(C)NC2=C(C(=O)CC(c3ccc(OC)c(OC)c3)C2)C1c1ccc(Cl)cc1Cl", "note": "(stereo not drawn)", "IFI": 3.57}, {"smiles": "CCCCCN(C(=O)c1ccc(C)cc1)C(C)c1nc2ccccc2c(=O)n1-c1ccccc1CC", "note": "(stereo not drawn)", "IFI": 3.7}, {"smiles": "Cc1cc(Nc2ccc(I)cc2)n2ncnc2n1", "IFI": 0}, {"smiles": "Ic1nc2ccccc2s1", "IFI": 0}, {"smiles": "Cc1ccc2nc(Cl)c3cc(C(=O)NCCN4CCN(C)CC4)sc3c2c1", "IFI": 2.44}, {"smiles": "COc1cc2c(cc1OC)-c1cc3ccc4c(c3c[n+]1CC2)OCO4", "IFI": 4.07}, {"smiles": "COC(=O)c1ccc(N2C(=O)C3C(C2=O)C2(c4ccccc4)C(=O)C3(c3ccccc3)C(c3ccc(OC)cc3)=C2c2ccc(OC)cc2)cc1", "note": "(stereo not drawn)", "IFI": 0}, {"smiles": "Cc1ccc(N=C2C(=O)Nc3ccc(C)c(Br)c32)c(O)c1", "IFI": 0}, {"smiles": "C[N+](C)(C)c1nc(N2CCOCC2)nc(N(c2ccccc2)c2ccccc2)n1", "IFI": 2.41}, {"smiles": "CCCCCN(C(=O)c1cccc(C(F)(F)F)c1)C(CC)c1nc2ccccc2c(=O)n1-c1ccccc1OC", "note": "(stereo not drawn)", "IFI": 0.926}, {"smiles": "O=C1C(Nc2ccccc2)=C(N2CCCCC2)C(=O)c2ccccc21", "IFI": 10.8}, {"smiles": "COc1cc(NCCCC(C)N)c2ncccc2c1", "note": "(stereo not drawn)", "IFI": 10.2}, {"smiles": "Cc1cccc[n+]1CCCCCCCCCC[n+]1ccccc1C", "IFI": 1.39}, {"smiles": "CCOC(=O)C1=C(C)NC2=C(C(=O)CC(c3ccc(OC)c(OC)c3)C2)C1c1cccc(Cl)c1Cl", "note": "(stereo not drawn)", "IFI": 3.57}, {"smiles": "CCOC(=O)c1ccc(NC(=O)c2ccc3nc(NC(=O)c4ccc(C(=O)OC)cc4)sc3c2)cc1", "IFI": 1.49}, {"smiles": "OC(CCN1CCN(C(c2ccccc2)c2ccccc2)CC1)c1ccccc1", "note": "(stereo not drawn)", "IFI": 1.51}, {"smiles": "O=C(NC(C(=O)c1ccccc1)N1CCCCC1)c1ccco1", "note": "(stereo not drawn)", "IFI": 0}, {"smiles": "O=C(Nc1ccc2oc(-c3ccc(I)cc3)nc2c1)c1ccc([N+](=O)[O-])o1", "IFI": 8.33}, {"smiles": "COC(=O)c1c(-c2c(Cl)cccc2Cl)noc1NC(=O)NN1CCCCC1", "IFI": 1.68}, {"smiles": "O=C(NCCc1nc(-c2ccncc2)n[nH]1)C12CC3CC(CC(C3)C1)C2", "IFI": 0}, {"smiles": "Cn1c2ccccc2c2nnc(NN=Cc3ccccn3)nc21", "IFI": 15.4}, {"smiles": "CC(=O)Oc1cccc(C=c2sc3ncnn3c2=O)c1", "IFI": 0}, {"smiles": "O=C(CSc1cn(CCNC(=O)c2ccc(F)cc2)c2ccccc12)Nc1ccccc1F", "IFI": 1.22}, {"smiles": "Clc1ccc2c(c1)CN(C1CCCCC1)CO2", "IFI": 1.54}, {"smiles": "Cc1ccc(N2C(=O)CC(NCCCN3CCOCC3)C2=O)cc1", "note": "(stereo not drawn)", "IFI": 0}, {"smiles": "COc1ccc(/C=C/c2nc(=O)c3ccccc3o2)cc1", "IFI": 0}, {"smiles": "COc1ccc(CCNc2nc(NCCCn3ccnc3)ncc2C(=O)NCC(C)C)cc1OC", "IFI": 1.92}, {"smiles": "CN1CCN(c2nc(Nc3ccc(O)cc3)nc3ccccc23)CC1", "IFI": 7.14}, {"smiles": "CN(C)c1ccc(C(=Cc2cc(-c3ccccc3)cc(-c3ccccc3)[o+]2)c2ccc(N(C)C)cc2)cc1", "IFI": 12.7}, {"smiles": "CCN1/C(=C/c2ccc3ccccc3[n+]2CC)C=Cc2ccccc21", "IFI": 22.7}, {"smiles": "COc1ccc(NC(=O)/C=C/c2ccccc2Cl)cc1", "IFI": 0}, {"smiles": "O=C1C(=O)c2ncccc2-c2cccnc21", "IFI": 22.1}, {"smiles": "CCN1CCCC(Nc2ccnc3cc4ccccc4cc23)C1", "note": "(stereo not drawn)", "IFI": 11.8}, {"smiles": "Cc1cccc(NC(c2ccccc2F)c2ccc3cccnc3c2O)n1", "note": "(stereo not drawn)", "IFI": 4.54}, {"smiles": "Cc1cccc(OCC(=O)Nc2cccc(NC(=O)COc3cccc(C)c3)n2)c1", "IFI": 2.94}, {"smiles": "O=[N+]([O-])c1ccc(C=NN2CCN(Cc3ccccc3Cl)CC2)cc1", "IFI": 0}]}]}
